The source of these data is PubChem BioAssay AID1745853 (National Center for Advancing Translational Sciences (NCATS), 2022).

What all share (assay): Primary Screen for Target Class Profiling of Small Molecule Inhibitors of Methyltransferases
The target of assay [1] is Glycine N-methyltransferase (Homo sapiens) (UniProt Q14749). As to conditions: purified enzyme, MTase-Glo SAH luminescence; measured here: GNMT inhibition; at 40 µM; stronger effect = lower value. An outline of the steps: (§1)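 Each enzyme was assayed with SAM and its substrate. SAH formation detected by MTase-Glo luminescence; single-point 40 uM screen[…].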
The target of assay [2] is Guanidinoacetate N-methyltransferase (Homo sapiens) (UniProt Q14353). As to conditions: purified enzyme, MTase-Glo SAH luminescence; measured here: GAMT inhibition; at 40 µM; stronger effect = lower value. Put shortly: as §1
For assay [3], the target named is Histamine N-methyltransferase (Homo sapiens) (UniProt P50135). To be noted: purified enzyme, MTase-Glo SAH luminescence; measured here: HNMT inhibition; at 40 µM; stronger effect = lower value. Put shortly:
as §1

Assay [4] has as its target Nicotinamide N-methyltransferase (Homo sapiens) (UniProt P40261). As to conditions: purified enzyme, MTase-Glo SAH luminescence; measured here: NNMT inhibition; at 40 µM; stronger effect = lower value. An outline of the steps: as §1
Assay [5] deals with Phenylethanolamine N-methyltransferase (Homo sapiens) (UniProt P11086). To be noted: purified enzyme, MTase-Glo SAH luminescence; measured here: PNMT inhibition; at 40 µM; stronger effect = lower value. An outline of the steps: as §1

Structures are written as SMILES. Some of the results follow. These are further read-outs of the screen, such as a control signal, another cell line or another target. No call is given for them.
On the % scale 0 is the no-effect control and ±100 the full control effect.

Regarding `O=C(Cn1nc2n(Cc3ccccc3)c(=O)c3ccccc3n2c1=O)Nc1ccc(Cl)cc1`, the activity change, negative = inhibition is 4.32% in assay [1]; 0% in assay [2]; 6.42% in assay [3]; -2.4% in assay [4]; 1.7% in assay [5].

Consider `Cc1ccc(CN2C(=O)c3cc4oc(C)cc4n3CC2(C)C(=O)NC2CCCCCCC2)cc1` (configuration not stated), for which the activity change, negative = inhibition was -7.62% in assay [1]; -10.4% in assay [2]; 0.353% in assay [3]; -14.2% in assay [4]; -10.2% in assay [5].

Take `Cc1cc(-c2cc(OC(=O)c3ccccc3)ccc2Cl)cc2nnc(Nc3ccc(OCCN4CCCC4)cc3)nc12`: the activity change, negative = inhibition was -2.48% in assay [1]; -9.06% in assay [2]; -6.41% in assay [3]; -24% in assay [4]; -8.11% in assay [5].

Consider `COCCCN1C(=O)c2ccc(-c3ccco3)n2CC1(C)C(=O)NC1CCCCCCC1` (configuration not stated), for which the activity change, negative = inhibition in assay [1] was -4.39%; in assay [2] it was -2.41%; in assay [3], 1.36%; in assay [4] it was -8.48%; in assay [5], -3.94%.

For `COc1ccc(CN2CCc3oc(C)c(C(=O)NC(C)Cn4ccc(C)n4)c3C2)cc1` (configuration not stated), the activity change, negative = inhibition in assay [1] was -1.48%; in assay [2], 3.57%; in assay [3] it was -0.954%; in assay [4] it was -1.46%; in assay [5], -0.354%.

For the molecule `CC1=C2C(=O)C=C(CO[C@@H]3O[C@H](CO)[C@@H](O)[C@H](O)[C@H]3O)[C@@H]2[C@H]2OC(=O)[C@H](C)[C@@H]2CC1`, the activity change, negative = inhibition in assay [1] was 2.91%; in assay [2], 5.19%; in assay [3] it was 5.8%; in assay [4], -6.72%; in assay [5], -0.885%.

Regarding `Cc1ccccc1OC1(C(=O)O)CCN(c2ncccc2C(N)=O)CC1`, the activity change, negative = inhibition was -2.28% in assay [1]; -13.1% in assay [2]; -2.16% in assay [3]; -7.12% in assay [4]; -5.25% in assay [5].

Consider `Cc1ccc(N2C(=O)c3nc4ccccc4n3CC2(C)C(=O)NC2CCCCCC2)cc1` (configuration not stated), for which the activity change, negative = inhibition came to 6.4% in assay [1]; 0% in assay [2]; 10.6% in assay [3]; 15.5% in assay [4]; 4.44% in assay [5].

As for `CC1CCN(S(=O)(=O)c2ccc3c(ccn3CC(=O)NCc3cccc(F)c3)c2)CC1`, the activity change, negative = inhibition in assay [1] was 4.38%; in assay [2] it was 0.586%; in assay [3], 2.18%; in assay [4], -2.07%; in assay [5], 0.292%.

Take `Oc1ccccc1-c1cc(C2=CCOCC2)c2cncn2c1`: the activity change, negative = inhibition in assay [1] was -30%; in assay [2], -8.41%; in assay [3], -11.8%; in assay [4], -10.7%; in assay [5], -6.02%.

In the case of `CCc1ccccc1NC(=O)Cn1nc2n(C)c(=O)c3ccc(C(=O)NC4CCCCC4)cc3n2c1=O`, the activity change, negative = inhibition in assay [1] was 0.497%; in assay [2], 3.98%; in assay [3], 2.54%; in assay [4], -0.177%; in assay [5] it was 1.5%.

As to `CC(C)OCCCN1C(=O)c2ccc(-c3ccccc3)n2CC1(C)C(=O)NC1CCCCCCC1` (configuration not stated), the activity change, negative = inhibition was -4.24% in assay [1]; -3.48% in assay [2]; -3.07% in assay [3]; -15.4% in assay [4]; -2.95% in assay [5].

As for `CC(C)CNC(=O)c1ccc2c(=O)n(C(C)C)c3nn(Cc4ccc(F)cc4Cl)c(=O)n3c2c1`, the activity change, negative = inhibition in assay [1] is 0.491%; in assay [2] it was 0%; in assay [3], 6.32%; in assay [4] it was 0.012%; in assay [5], 3.2%.

Turning to `O=C(CNC(=O)c1ccccc1)NCc1nnc2ccc(-c3ccccc3)nn12`, the activity change, negative = inhibition in assay [1] is -17.1%; in assay [2], -5.84%; in assay [3] it was -4.73%; in assay [4], -15.4%; in assay [5], -25.1%.

Regarding `Cc1cc2c(cc3n2CC(C)(C(=O)NC2CCCCCC2)N(c2cccc(Cl)c2)C3=O)o1` (configuration not stated), the activity change, negative = inhibition was -13% in assay [1]; 0.346% in assay [2]; -11% in assay [3]; -9.38% in assay [4]; -10.3% in assay [5].

In the case of `COc1ccc2cc3n(c2c1)CC(C)(C(=O)NC1CCCC1)N(c1cccc(SC)c1)C3=O` (configuration not stated), the activity change, negative = inhibition was -11.1% in assay [1]; -3.06% in assay [2]; -4.89% in assay [3]; -11.5% in assay [4]; -7.77% in assay [5].

`CC1(C(=O)NC2CCCCCC2)Cn2c(cc3ccccc32)C(=O)N1Cc1cccs1` (configuration not stated): the activity change, negative = inhibition was 2.46% in assay [1]; 0% in assay [2]; 2.08% in assay [3]; -5.07% in assay [4]; -3.64% in assay [5].

Take `O=S(=O)(Nc1ccc(C(O)(C(F)(F)F)C(F)(F)F)cc1)c1cccs1`: the activity change, negative = inhibition in assay [1] was 7.89%; in assay [2], 5.7%; in assay [3] it was 9.94%; in assay [4], -2.5%; in assay [5], 7.36%.

Turning to `Cc1ccccc1C#Cc1ccc(CCC(=O)O)cc1`, the activity change, negative = inhibition in assay [1] was -13.4%; in assay [2], -10%; in assay [3], -8.01%; in assay [4] it was -33.4%; in assay [5], -13.7%.

Consider `CCOc1ccc(N2C(=O)c3cc(-c4ccccc4)nn3CC2(C)C(=O)NCc2ccccc2)cc1` (configuration not stated), for which the activity change, negative = inhibition in assay [1] was 4.9%; in assay [2], 0%; in assay [3], 7.81%; in assay [4], 4.62%; in assay [5], 2.87%.

Turning to `COc1cc2c(cc1NC(C)=O)C(c1ccc(Oc3ccccc3)nc1)CC(=O)N2` (configuration not stated), the activity change, negative = inhibition was -4.92% in assay [1]; -1.03% in assay [2]; -0.303% in assay [3]; -10.5% in assay [4]; -2.87% in assay [5].

As to `CC1(COc2cccnc2)COc2ccc(C(=O)NCc3cccs3)cc2N1` (configuration not stated), the activity change, negative = inhibition in assay [1] was -15.3%; in assay [2], -8.85%; in assay [3], -34.2%; in assay [4], -19.7%; in assay [5], -11.7%.

Turning to `COc1ccc2cc3n(c2c1)CC(C)(C(=O)NC1CCCCCC1)N(Cc1cccnc1)C3=O` (configuration not stated), the activity change, negative = inhibition in assay [1] was 2.31%; in assay [2], 4%; in assay [3] it was 4.09%; in assay [4], -4.48%; in assay [5], 1.08%.

As to `c1ccc(-c2csc(N3CCOCC3)n2)cc1`, the activity change, negative = inhibition is 1.81% in assay [1]; 2.36% in assay [2]; 8.81% in assay [3]; -13% in assay [4]; 1.87% in assay [5].

Consider `CN(C)S(=O)(=O)c1ccc(Cl)c(-c2nnc(-c3ccccc3)o2)c1`, for which the activity change, negative = inhibition in assay [1] stood at 6.21%; in assay [2] it was 0.389%; in assay [3], 11.4%; in assay [4], 4.44%; in assay [5] it was 8.84%.

`CC(O)C1C(=O)N2C(C(=O)O)=C(SC3CNC(C(=O)N(C)C)C3)C(C)C12` (configuration not stated): the activity change, negative = inhibition in assay [1] was 0.682%; in assay [3], 8.92%.

As for `Cc1cn2nnc(C(=O)N3CCC(C(=O)Nc4cccc(F)c4)CC3)c2c(=O)[nH]1`, the activity change, negative = inhibition in assay [1] was -5.73%; in assay [2] it was -4.88%; in assay [3], -1.89%; in assay [4], -4.59%; in assay [5], 0.247%.

With `COc1ccccc1CNc1nc2c(S(=O)(=O)c3cc(C)ccc3C)nnn2c2ccccc12`, the activity change, negative = inhibition in assay [1] is -5.09%; in assay [2], 0.656%; in assay [3], -2.99%; in assay [4] it was -11.8%; in assay [5] it was -8.51%.

`Cc1cccc(CNC(=O)CCn2ccc3cc(S(=O)(=O)N4CCCC4)ccc32)c1`: the activity change, negative = inhibition is -0.623% in assay [1]; 4.26% in assay [2]; -2.97% in assay [3]; -0.252% in assay [4]; 0.985% in assay [5].

Consider `O=S(=O)(c1ccc(Cl)cc1)N1CCN(c2ccnc3cc(Cl)ccc23)CC1`, for which the activity change, negative = inhibition in assay [1] was 3.15%; in assay [2], -10.8%; in assay [3] it was -15%; in assay [4] it was -36%; in assay [5] it was -6.81%.
